No constants are given. Whether binding was seen depends on the method and setting. For some of these results: Binding seen in cells or lysates may run through a third protein. Some results given as binding are weak or reduced against the parent protein; the word gives no strength. Tags and fused reporters may be left off the sequences shown.
T1: FUT1 fused to TF–Cub or NubG (split-ubiquitin assay) (Arabidopsis thaliana) (UniProt Q9SWH5)
T1 sequence: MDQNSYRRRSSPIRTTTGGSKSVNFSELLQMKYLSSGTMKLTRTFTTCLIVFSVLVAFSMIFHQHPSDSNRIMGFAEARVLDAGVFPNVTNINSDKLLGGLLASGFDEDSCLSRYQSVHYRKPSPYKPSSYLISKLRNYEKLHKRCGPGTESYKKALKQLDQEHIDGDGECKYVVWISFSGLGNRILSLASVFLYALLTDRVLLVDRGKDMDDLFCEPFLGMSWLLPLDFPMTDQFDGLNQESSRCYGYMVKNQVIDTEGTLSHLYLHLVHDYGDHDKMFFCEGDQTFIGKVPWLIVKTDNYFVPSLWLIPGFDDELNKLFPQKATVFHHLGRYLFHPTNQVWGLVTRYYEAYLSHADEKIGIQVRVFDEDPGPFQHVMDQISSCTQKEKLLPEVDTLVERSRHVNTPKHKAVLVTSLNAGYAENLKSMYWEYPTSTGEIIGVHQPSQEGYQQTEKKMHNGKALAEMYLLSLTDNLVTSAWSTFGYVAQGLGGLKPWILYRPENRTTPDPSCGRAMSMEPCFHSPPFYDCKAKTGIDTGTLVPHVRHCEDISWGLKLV

T2: MUR3 fused to TF–Cub or NubG (split-ubiquitin assay) (Arabidopsis thaliana) (UniProt Q7XJ98)
T2 sequence: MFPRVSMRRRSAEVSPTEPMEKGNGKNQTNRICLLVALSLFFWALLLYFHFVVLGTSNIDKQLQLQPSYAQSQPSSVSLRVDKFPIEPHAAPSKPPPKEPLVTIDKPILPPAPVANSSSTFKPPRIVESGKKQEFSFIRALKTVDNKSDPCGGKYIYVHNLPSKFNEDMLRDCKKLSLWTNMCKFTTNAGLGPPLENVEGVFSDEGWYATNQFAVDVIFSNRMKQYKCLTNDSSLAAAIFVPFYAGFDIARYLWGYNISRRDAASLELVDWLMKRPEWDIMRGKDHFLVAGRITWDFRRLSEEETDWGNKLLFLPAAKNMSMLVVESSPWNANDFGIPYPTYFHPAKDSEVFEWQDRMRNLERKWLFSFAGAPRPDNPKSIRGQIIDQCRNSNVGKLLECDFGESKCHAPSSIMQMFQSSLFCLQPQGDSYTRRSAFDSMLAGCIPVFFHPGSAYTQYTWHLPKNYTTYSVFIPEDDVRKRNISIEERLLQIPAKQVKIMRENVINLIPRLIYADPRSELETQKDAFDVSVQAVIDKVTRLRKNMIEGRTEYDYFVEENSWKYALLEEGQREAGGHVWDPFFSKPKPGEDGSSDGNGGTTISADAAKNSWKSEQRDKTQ

T3: XXT2 fused to TF–Cub or NubG (split-ubiquitin assay) (Arabidopsis thaliana) (UniProt O22775)
T3 sequence: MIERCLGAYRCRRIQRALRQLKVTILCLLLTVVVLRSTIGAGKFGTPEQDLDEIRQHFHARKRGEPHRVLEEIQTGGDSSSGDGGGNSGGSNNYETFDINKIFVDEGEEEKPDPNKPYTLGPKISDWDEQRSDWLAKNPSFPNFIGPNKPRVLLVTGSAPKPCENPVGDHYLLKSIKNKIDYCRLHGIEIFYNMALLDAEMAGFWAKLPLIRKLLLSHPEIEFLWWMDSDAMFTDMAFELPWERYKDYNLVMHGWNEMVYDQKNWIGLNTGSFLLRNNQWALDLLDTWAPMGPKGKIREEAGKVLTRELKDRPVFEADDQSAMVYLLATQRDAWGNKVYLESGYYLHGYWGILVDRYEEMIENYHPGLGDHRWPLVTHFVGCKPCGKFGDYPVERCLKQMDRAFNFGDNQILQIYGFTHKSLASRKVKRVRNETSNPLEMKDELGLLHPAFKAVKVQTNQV

T4: FUCO…1 (FUT1) fused to hRluc fragment [F1] or [F2] (Arabidopsis thaliana) (UniProt Q9SWH5)
T4 sequence: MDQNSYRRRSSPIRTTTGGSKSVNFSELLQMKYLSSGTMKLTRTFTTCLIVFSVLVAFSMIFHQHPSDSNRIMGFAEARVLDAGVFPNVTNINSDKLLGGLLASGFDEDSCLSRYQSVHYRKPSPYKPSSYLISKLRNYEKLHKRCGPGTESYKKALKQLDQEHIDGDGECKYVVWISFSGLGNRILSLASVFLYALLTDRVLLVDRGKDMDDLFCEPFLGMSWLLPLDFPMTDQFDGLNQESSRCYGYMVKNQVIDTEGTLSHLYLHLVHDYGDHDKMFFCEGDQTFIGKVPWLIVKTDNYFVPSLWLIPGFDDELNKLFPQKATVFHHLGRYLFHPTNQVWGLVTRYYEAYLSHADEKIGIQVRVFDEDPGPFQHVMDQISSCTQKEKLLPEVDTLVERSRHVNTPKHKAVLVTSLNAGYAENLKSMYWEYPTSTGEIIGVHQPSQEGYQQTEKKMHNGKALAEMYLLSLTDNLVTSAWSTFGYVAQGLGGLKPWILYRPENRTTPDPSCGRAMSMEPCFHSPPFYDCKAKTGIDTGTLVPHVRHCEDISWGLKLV

T5: XXT2 fused to hRluc fragment [F1] or [F2] (Arabidopsis thaliana) (UniProt O22775)
T5 sequence: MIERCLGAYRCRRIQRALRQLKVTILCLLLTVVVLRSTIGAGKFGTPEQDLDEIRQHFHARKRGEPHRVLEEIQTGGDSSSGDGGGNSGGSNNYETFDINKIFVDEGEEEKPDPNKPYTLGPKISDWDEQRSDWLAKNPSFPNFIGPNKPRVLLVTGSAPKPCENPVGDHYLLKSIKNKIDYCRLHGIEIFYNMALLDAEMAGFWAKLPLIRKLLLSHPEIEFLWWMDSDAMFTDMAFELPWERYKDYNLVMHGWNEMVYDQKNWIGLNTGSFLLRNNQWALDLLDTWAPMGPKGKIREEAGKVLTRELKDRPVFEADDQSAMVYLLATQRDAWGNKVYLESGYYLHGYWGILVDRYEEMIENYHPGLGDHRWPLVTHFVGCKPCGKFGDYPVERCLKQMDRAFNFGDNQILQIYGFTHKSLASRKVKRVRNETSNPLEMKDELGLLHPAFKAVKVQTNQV

T6: XXT5 fused to hRluc fragment [F1] or [F2] (Arabidopsis thaliana) (UniProt Q9CA75)
T6 sequence: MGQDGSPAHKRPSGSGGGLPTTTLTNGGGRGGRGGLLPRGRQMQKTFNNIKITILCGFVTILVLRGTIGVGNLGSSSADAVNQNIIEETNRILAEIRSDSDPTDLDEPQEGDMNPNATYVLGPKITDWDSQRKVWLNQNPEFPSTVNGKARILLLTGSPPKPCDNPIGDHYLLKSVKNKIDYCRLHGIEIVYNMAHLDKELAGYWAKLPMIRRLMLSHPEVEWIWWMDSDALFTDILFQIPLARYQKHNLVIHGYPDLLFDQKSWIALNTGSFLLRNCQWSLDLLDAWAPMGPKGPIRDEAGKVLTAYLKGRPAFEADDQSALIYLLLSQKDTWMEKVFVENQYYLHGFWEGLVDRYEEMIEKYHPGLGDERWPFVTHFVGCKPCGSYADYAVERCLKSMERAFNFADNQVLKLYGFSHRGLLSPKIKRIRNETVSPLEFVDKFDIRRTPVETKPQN


Assays:
[1] = biological target: T1, FUT1 fused to TF–Cub or NubG (split-ubiquitin assay) (Arabidopsis thaliana); test: two-hybrid; split-ubiquitin assay (DUALmembrane) in yeast NMY51: TF–Cub (bait) and NubG (prey) at the N-termini; growth on SD-His-Leu-Trp-Ade scored as interaction, X-gal overlay for β-galactosidase
[2] = biological target: T2, MUR3 fused to TF–Cub or NubG (split-ubiquitin assay) (Arabidopsis thaliana); test: as above
[3] = biological target: T3, XXT2 fused to TF–Cub or NubG (split-ubiquitin assay) (Arabidopsis thaliana); test: as above
[4] = biological target: T4, FUCO…1 (FUT1) fused to hRluc fragment [F1] or [F2] (Arabidopsis thaliana); test: split reporter; Rluc-PCA: proteins with C-terminal hRluc[F1]-HA and hRluc[F2]-FLAG co-expressed with p19 in N. benthamiana leaves for 72 h (Agrobacterium OD600 0.2 each, p19 0.05); pooled leaf discs macerated in 0.5 M NaCl, 0.1 M potassium phosphate pH 7.4, 1 mM EDTA, 0.02% BSA, protease inhibitors; 10 uM coelenterazine-h, luminescence 30 s; compared with p19 alone
[5] = biological target: T5, XXT2 fused to hRluc fragment [F1] or [F2] (Arabidopsis thaliana); test: as above
[6] = biological target: T6, XXT5 fused to hRluc fragment [F1] or [F2] (Arabidopsis thaliana); test: as above
[7] = biological target: XYLO…1 (XXT1) fused to hRluc fragment [F1] or [F2] (Arabidopsis thaliana) (UniProt Q9LZJ3); test: as above

binding [1] | binding [2] | binding [3] | binding [4] | binding [5] | binding [6] | binding [7] | Binder
no binding | no binding | no binding | – | – | – | – | CELLULOSE-SYNTHASE LIKE C4 (CSLC4) fused to TF–Cub or NubG (split-ubiquitin assay) (protein, UniProt Q9LJP4 1-673) MAPNSVAVTMEKPDNFSLLEINGSDPSSFPDKRKSISPKQFSWFLLLKAHRLISCLSWLVSSVKKRIAFSAKNINEEEDPKSRGKQMYRFIKACLVISIIALSIEIVAHFKKWNLDLINRPSWEVYGLVEWSYMAWLSFRSDYIAPLVISLSRFCTVLFLIQSLDRLVLCLGCFWIKFKKIEPKLTEESIDLEDPSSFPMVLIQIPMCNEREVYEQSIGAASQLDWPKDRILIQVLDDSDDPNLQLLIKEEVSVWAEKGVNIIYRHRLIRTGYKAGNLKSAMTCDYVKDYEFVTIFDADFTPNPDFLKKTVPHFKGNPELGLVQARWSFVNKDENLLTRLQNINLCFHFEVEQQVNGVFLNFFGFNGTAGVWRIKALEESGGWLERTTVEDMDIAVRAHLNGWKFIYLNDVEVTCELPESYEAYKKQQHRWHSGPMQLFRLCLPSIIKSKISVWKKANLIFLFFLLRKLILPFYSFTLFCIILPLTMFIPEAELPLWIICYVPIFISLLNILPSPKSFPFLVPYLLFENTMSITKFNAMISGLFQFGSAYEWVVTKKTGRSSESDLLAFAEKEEKLHRRNSESGLELLSKLKEQETNLVGQETVKKSLGGLMRPKNKKKTNMVFKKELGLAFLLLTAAARSFLSAHGLHFYFLLFQGLSFLVVGLDLIGEQIS
– | – | – | no binding | binds | binds | no binding | XYLO…1 (XXT1) fused to hRluc fragment [F1] or [F2] (protein, UniProt Q9LZJ3 1-460) MIEKCIGAHRFRRLQRFMRQGKVTILCLVLTVIVLRGTIGAGKFGTPEKDIEEIREHFFYTRKRGEPHRVLVEVSSKTTSSEDGGNGGNSYETFDINKLFVDEGDEEKSRDRTNKPYSLGPKISDWDEQRRDWLKQNPSFPNFVAPNKPRVLLVTGSAPKPCENPVGDHYLLKSIKNKIDYCRIHGIEIFYNMALLDAEMAGFWAKLPLIRKLLLSHPEIEFLWWMDSDAMFTDMVFELPWERYKDYNLVMHGWNEMVYDQKNWIGLNTGSFLLRNSQWSLDLLDAWAPMGPKGKIREEAGKVLTRELKDRPAFEADDQSAMVYLLATEREKWGGKVYLESGYYLHGYWGILVDRYEEMIENHKPGFGDHRWPLVTHFVGCKPCGKFGDYPVERCLRQMDRAFNFGDNQILQMYGFTHKSLGSRRVKPTRNQTDRPLDAKDEFGLLHPPFKAAKLSTTTT

From PMC4265154, “A reversible Renilla luciferase protein complementation assay for rapid identification of protein–protein interactions reveals the existence of an interaction network involved in xyloglucan biosynthesis in the plant Golgi apparatus” (Journal of Experimental Botany, 2014)
